Reference: PubChem BioAssay AID624417 (National Center for Advancing Translational Sciences (NCATS), 2012)
Out of some 410,000 compounds screened, about 6,400 (1.6%) were called active. The shares of active, inactive and inconclusive entries below differ from those in the screen. Calls follow the shape of the dose curve; as a rule, active = well fitted inhibition curve with a large enough effect; inconclusive = small, poorly fitted or top-dose-only effect; inactive = no such curve, though single readings can be large or run the other way. No potency is given beside an inconclusive call; the fits are too rough.

target: Glucagon-like peptide 1 receptor (Homo sapiens) (UniProt P43220); test: qHTS of GLP-1 Receptor Inverse Agonists (Inhibition Mode); settings: HEK293 GLP-1R CRE-luciferase, luminescence, 24 h, GLP-1R form is constitutively active; activity change, negative = inhibition: at 38.3 µM (top of the series) unless noted; also: nearly all actives have a fitted effect of over 55% in size
UniProt P43220, sequence (P43220 whole entry, looked up): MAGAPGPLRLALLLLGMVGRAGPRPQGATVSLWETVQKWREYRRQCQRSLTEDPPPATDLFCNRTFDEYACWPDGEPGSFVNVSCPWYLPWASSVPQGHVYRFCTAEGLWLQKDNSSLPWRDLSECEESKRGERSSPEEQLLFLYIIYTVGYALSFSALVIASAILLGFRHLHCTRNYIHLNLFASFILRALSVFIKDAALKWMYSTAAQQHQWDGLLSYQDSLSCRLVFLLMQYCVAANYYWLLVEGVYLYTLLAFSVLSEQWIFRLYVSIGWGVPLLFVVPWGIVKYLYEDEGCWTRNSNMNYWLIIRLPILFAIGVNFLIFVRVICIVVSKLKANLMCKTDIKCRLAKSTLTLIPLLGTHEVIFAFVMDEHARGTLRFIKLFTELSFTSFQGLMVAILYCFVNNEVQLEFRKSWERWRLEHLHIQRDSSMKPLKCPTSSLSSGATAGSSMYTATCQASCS
Method in brief: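 Seeding at 200 cells/uL, 12 h culture, 24 hr compound treatment, then luciferase reagent and a luminescence read; cells are HEK293 stably expressing a constitutively active GLP-1R plus cAMP-responsive luciferase.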
% is scaled to controls: 0 for no effect and ±100 for the full control effect; potency is read from the fitted curve at half-maximal effect; tags tell the direction and shape of the fitted curve.

Compound | Potency | activity change, negative = inhibition
CC(=O)c1cccc(NC(=O)c2ccc(N(Cc3ccccc3)S(C)(=O)=O)cc2)c1 | inconclusive [inhibitor, single point] | –
CC(C)(C)c1csc(NNC(=O)c2ccc(Br)cc2)n1 | inconclusive [inhibitor, single point] | –
COc1ccc(N(C(=O)c2ccc(C)cc2)S(=O)(=O)c2cccs2)cc1 | inconclusive [inhibitor, partial curve, poor fit] | –
CC(OC(=O)c1cccc(N(C)C)c1)C(=O)N1CCc2ccccc2C1 (stereo unspecified) | inconclusive [inhibitor, partial curve, poor fit] | –
CCN(CC)c1ccc(S(=O)(=O)N2CCOCC2)cc1NC(=O)COC(=O)/C=C/c1ccco1 | – | inactive: 3.03%
O=C(NC(=S)Nc1ccc2[nH]c(=O)[nH]c2c1)c1cncc(Br)c1 | – | inactive: 38%
CC(C)C[C@H]1CN([C@@H](Cc2ccccc2)CN2CCC[C@H]2CN2C(=O)C(=O)NC[C@@H]2Cc2ccc(O)cc2)C(=O)C(=O)N1CC1CCCCCC1 | inconclusive [inhibitor, single point] | –
COc1ccc2nc(NC(=O)CN3CCN(C)CC3)sc2c1 | – | inactive: -23.2%
CCOC(=O)C(=O)/C(C#N)=C/Nc1ccccc1 | – | inactive: 0%
CC1=C(C(=O)N(C(C)C)C(C)C)CC(CC(=O)NCCCN(C)C)C(=O)N1Cc1ccc(C(C)(C)C)cc1 (stereo unspecified) | inconclusive [inhibitor, single point] | –
Cc1ccc(Cn2c(C)c(C(=O)NCc3ccc(Cl)c(Cl)c3)sc2=O)cc1 | inconclusive [inhibitor, single point] | –
S=C(NCCc1ccccc1)NCCN1CCOCC1 | – | inactive: 16.3%
CCn1c2ccccc2c2cc(CN3CCN(S(C)(=O)=O)CC3)ccc21 | inconclusive [inhibitor, partial curve, poor fit] | –
CC(C)c1ccc(C(O)c2nc3ccccc3n2C)cc1 (stereo unspecified) | inconclusive [inhibitor, partial curve, poor fit] | –
O=C1NC(CCc2ccccc2)C(=O)N1Cc1cccc2ccccc12 (stereo unspecified) | inconclusive [inhibitor, single point] | –
Cc1cc(C)c(C)c(OCC(=O)NCc2nc(-c3ccccc3)no2)c1 | inconclusive [inhibitor, single point] | –
Cc1cc(NC(=O)CCN2CCN(C)CC2)ccc1Br | inconclusive [inhibitor, partial curve, poor fit] | –
COc1ccc(C(O)c2ncc(-c3cccc(C(F)(F)F)c3)[nH]2)cc1F (stereo unspecified) | inconclusive [inhibitor, single point] | –
Cc1nn(C)c(C)c1S(=O)(=O)N(CC(=O)N1CCc2ccccc2C1)c1ccc(C(C)C)cc1 | inconclusive [inhibitor, single point] | –
CC(C)(C)c1ccc(C(=O)NCc2nnc(SCC(=O)NCc3ccco3)o2)cc1 | – | inactive: -20.5%
CCOC(=O)N1CCN(C(=O)c2ccc(C#CC3(O)CCCCC3)cc2)CC1 | inconclusive [inhibitor, partial curve, poor fit] | –
O=C(N/N=C/c1cccs1)c1ccc2ccccc2c1 | inconclusive [inhibitor, full curve, poor fit] | –

Compound | Potency | activity change, negative = inhibition
NS(=O)(=O)c1cccc(NC(=O)CSc2ncnc3ccccc23)c1 | inconclusive [inhibitor, single point] | –
Cn1c(=O)n(CC(=O)NCC2CCCO2)c(=O)c2c3c(sc21)CCCC3 (stereo unspecified) | – | inactive: 8.91%
COc1ccc(NS(=O)(=O)c2ccc(Oc3c(C#N)cccc3C#N)cc2)cc1 | inconclusive [inhibitor, partial curve, poor fit] | –
CCC(NC(=O)Nc1nccs1)(C(F)(F)F)C(F)(F)F | inconclusive [inhibitor, partial curve, poor fit] | –
Cn1cc(C=C2C(=O)CC(C)(C)CC2=O)c2ccccc21 | – | inactive: 7.65%
CCCS(=O)(=O)NC(=O)C1(C)CCN(C(=O)c2ccccc2OC(F)(F)F)C1 (stereo unspecified) | – | inactive: 18.5%
O=C(COc1ccccc1)Nc1ccccc1Oc1ccccc1 | inconclusive [inhibitor, single point] | –
Cc1ccn2cc(-c3cccc([N+](=O)[O-])c3)nc2c1 | inconclusive [inhibitor, single point] | –
CCCCOc1ccc(-c2nnn(CC(=O)Nc3ncc(CC(=O)OCC)s3)n2)cc1 | inconclusive [inhibitor, single point] | –
Cc1ccccc1Cn1nnc(-c2cccc(C(=O)O)c2)n1 | inconclusive [inhibitor, single point] | –
Nc1nc(O)c(CC(=O)O)s1 | inconclusive [inhibitor, single point] | –
O=C(CCOc1ccccc1)Nc1ccc(Br)cc1 | inconclusive [inhibitor, single point] | –
Cc1cc(C)n(CC(=O)NC2CCCc3c2cnn3-c2ccc(C)c(C)c2)n1 (stereo unspecified) | inconclusive [inhibitor, partial curve] | –
CO[C@H]1CN(C)C(=O)c2cc(NC(=O)C3CCOCC3)ccc2OC[C@H](C)N(Cc2nccs2)C[C@H]1C | – | inactive: 0.676%
CCOC(=O)c1ccc(N2CCN(c3cc(C)ccc3C)CC2)c(N)c1 | inconclusive [inhibitor, partial curve, poor fit] | –
COCCC(C(=O)Oc1c(C(C)(C)C)cc(C)cc1C(C)(C)C)c1ccccc1 (stereo unspecified) | inconclusive [inhibitor, partial curve, poor fit] | –
c1ccc(CC(Nc2ccccn2)c2ccccc2)cc1 (stereo unspecified) | inconclusive [inhibitor, partial curve, poor fit] | –
COc1ccc(-c2nc3cccc(C)n3c2NCc2ccco2)cc1OC | inconclusive [inhibitor, single point] | –
COCCNc1nc(NCC2CCCCC2)c2sc(-c3ccccc3)cc2n1 | inconclusive [inhibitor, single point] | –
O=C(NC(=S)NCc1ccccc1)c1ccccc1[N+](=O)[O-] | inconclusive [inhibitor, full curve, poor fit] | –
COc1cccc(CNC(=O)CCc2c(C)c3ccc(O)c(C)c3oc2=O)c1 | – | inactive: 2.37%
CCOC(=O)C1=CC[C@H]2c3c(c4ccccc4n3C)C(=O)C1N2Cc1ccccc1 | – | inactive: 14.6%

Compound | Potency | activity change, negative = inhibition
CCCCN(CC)CCCNC(=O)c1ccc2c(c1)NC(=O)CN2C | – | inactive: 4%
CCCCc1ccc(NC(=O)CSC2=C(C#N)C(c3ccco3)C3=C(CCCC3=O)N2)cc1 (stereo unspecified) | inconclusive [inhibitor, single point] | –
Cc1ccc(-n2ncc(C(=O)NCCCN3CCc4ccccc4C3)c2C2CCN(C(=O)OC(C)(C)C)CC2)c(C)c1 | inconclusive [inhibitor, single point] | –
COc1cccc(-c2cc3nc(NCCOc4ccccc4Cl)n(C)c(=O)c3s2)c1 | inconclusive [inhibitor, single point] | –
COc1ccc(F)cc1C(=O)C1CCCN(Cc2c[nH]c3ccccc23)C1 (stereo unspecified) | inconclusive [inhibitor, partial curve, poor fit] | –
Cc1cc(C)n(-c2ccc([N+](=O)[O-])cc2-c2nn[nH]n2)n1 | – | inactive: 5.94%
CCCc1[nH]nc2c1C(C1CC=CCC1)C(C#N)=C(N)O2 (stereo unspecified) | inconclusive [inhibitor, partial curve, poor fit] | –
O=c1ccnc(Nc2ccc3c(c2)OCCO3)[nH]1 | inconclusive [inhibitor, single point] | –
Fc1cccc(Cl)c1CNCc1ccccc1Cl | inconclusive [inhibitor, partial curve, poor fit] | –
CCCCOc1ccc(C2C(=O)N(C3CCCCC3)CC(=O)N2CCCC)cc1 (stereo unspecified) | – | inactive: -15.2%
COc1ccc(CN(C)C(=O)C(Cc2ccccc2)NC(=O)c2ccccc2)cc1F (stereo unspecified) | inconclusive [inhibitor, single point] | –
CN(C)c1cccc(/C=C(\C#N)c2ccccc2)c1 | inconclusive [inhibitor, partial curve, poor fit] | –
C=C1C(=O)OC2C1CCC(C)=C1C(=O)C3OC3(C)C12 (stereo unspecified) | inconclusive [inhibitor, single point] | –
Clc1ccc(Cc2noc(CN3CCN(c4ccccc4)CC3)n2)c(Cl)c1 | inconclusive [inhibitor, partial curve, poor fit] | –
O=C(Nc1ccc2nc(-c3ccccc3)[nH]c2c1)c1cccs1 | – | inactive: 142%
O=C1CCC(C(=O)Nc2ccc(Cl)cc2)N1 (stereo unspecified) | inconclusive [inhibitor, partial curve] | –
O=C(CSCc1c(Cl)cccc1Cl)Nc1ccc2c(c1)OCCO2 | inconclusive [inhibitor, single point] | –
O=C(COc1ccc(Cl)cc1)Nc1ccc(N2CCN(C(=O)c3ccco3)CC2)cc1 | inconclusive [inhibitor, single point] | –
O=C(c1cccs1)n1nc(-c2ccccc2)nc1NCc1ccco1 | inconclusive [inhibitor, single point] | –
Cc1c2cnn(CC(=O)NCCCN3CC(C)CC(C)C3)c(=O)c2c(C)n1Cc1ccc(Cl)cc1 (stereo unspecified) | inconclusive [inhibitor, single point] | –
COCc1cc(C)[nH]c(=O)c1C#N | – | inactive: -12.9%
CCCc1cc(C(=O)Nc2ccc(C(C)=O)cc2)no1 | inconclusive [inhibitor, partial curve, poor fit] | –
